Results as given in the RNAGym collection of RNA variant scans (doi:10.7554/elife.90254).
Read counts are not given, so values of variants with three or more changes are uncertain.

B1: LINE1-mini (parent)
chain: GGCAGAGCUCAACACAGCGUGGCAAAGUGGCUGUGGCUAGACUGCC

Variants of: B1
Test: self-cleavage, relative activity (ratio to wild type); higher = more cleavage; in vitro, sequencing; the parent is a self-cleaving ribozyme

Row | Variant | self-cleavage
1 | G2U C3A C37A | 0.24
2 | G2U C3A C18G G21C G29C G40A | 0.04
3 | G2U A6U C15G | 0
4 | G2U A41G C45U | 0.03
5 | G2U A14U C18G G36A | 0.03
6 | G2U A11G G19U G33U | 0.01
7 | G2U A16U U38G | 0.01
8 | G2U A16G U43C | 0.01
9 | G2U A14C C18U | 0.03
10 | G2U A12U C13A G40A C45G | 0.02
11 | G2U A11C G35A | 0.01
12 | G2U A14C A24G C31U U32A C37G U38G | 0
13 | G2U A11C G17U G19A G36U | 0.05
14 | G2U C3U C10A U20C | 0.06
15 | G2U A16C C23A U28A G40U | 0.02
16 | G2U A14G U43G | 0
17 | G2U A11C C15G C46A | 0.03
18 | G2U C3U A11G C13A A16U G22A | 0.01
19 | G2U C3G A14G | 0.09
20 | G2U C3U A26G C37G G40U C46A | 0.05
21 | G2U A16G U38A G44C | 0.03
22 | G2U C3A A12G U38C A39C C45A | 0.02
23 | G2U A11U U20C A25G G36A C37A A41U C42U | 0
24 | G2U A24U G40U A41C C46G | 0.01

Row | Variant | self-cleavage
25 | G2U C3A G36U U43C | 0.03
26 | G2U A25G G33U G36U A41U | 0.02
27 | G2U A12C U20A A26U | 0.01
28 | G2U A14U G30U | 0.07
29 | G2U A12U G21U G27U C31A | 0.01
30 | G2U A25C U32G U38G | 0.01
31 | G2U A26C G29A U32A | 0.02
32 | G2U C3A C31G | 0.08
33 | G2U A11U C31G U32C A39U | 0.01
34 | G2U A41C C46A | 0.1
35 | G2U A6U U9A G19C C37A C45G | 0.07
36 | G2U A14C G17C G29C U38G | 0
37 | G2U A25U C31A | 0.08
38 | G2U A14U G21U U34G | 0.06
39 | G2U C3A U34C | 0.08
40 | G2U A26G U32G G33A | 0.01
41 | G2U A24G U43C G44A | 0.04
42 | G2U C3A C18G A26G G30A A41G | 0.02
43 | G2U A11C C15U | 0.02
44 | G2U A11C C42A | 0
45 | G2U C3A A4U G7C C13G | 0.1
46 | G2U A14C G17C C46A | 0.04
47 | G2U C3G G19A G22C A24U U32C C42U | 0.04
48 | G2U A14U C37U C42U | 0.16

Row | Variant | self-cleavage
49 | G2U C3A G33U | 0.05
50 | G2U A24G U43A | 0
51 | G2U C3A C18A G44A | 0.23
52 | G2U A24G A41C | 0.04
53 | G2U A26C G29C | 0
54 | G2U C3U A16C C18U G19U G27C | 0.04
55 | G2U A14U G22A G35U A39U G40U C42A | 0.02
56 | G2U A12U C15A C23A C42U | 0.11
57 | G2U A16U G19C | 0.02
58 | G2U A41U C46A | 0.05
59 | G2U A12U A14C G29U U43A | 0.01
60 | G2U A14G G21U G22C G35A | 0.01
61 | G2U C3G C18U G19U C46A | 0.06
62 | G2U C3A A12C | 0.01
63 | G2U C3G A6U C8G A12G G22U G30A | 0.02
64 | G2U C3U A16U A24C | 0.03
65 | G2U A16C A24G | 0.01
66 | G2U C3G A6C C18U G22C A26G | 0.08
67 | G2U C3A C8U U43A C46U | 0.41
68 | G2U A14U C37A U38G G40U | 0.03
69 | G2U C3A U9G C13U | 0.01
70 | G2U A11C A14G G17A G33U | 0
71 | G2U A12U A16G C23A G29C U32G | 0.01
72 | G2U A11C A16C | 0.03

Row | Variant | self-cleavage
73 | G2U C3A G5U U9A A11U C13G | 0.01
74 | G2U A6U A16C C42A | 0.09
75 | G2U A12U G21C G44U C45A | 0.03
76 | G2U A16U G35U C46A | 0.03
77 | G2U A12G U20A A24G G33U | 0.02
78 | G2U A14C G22C U32G A41G | 0.02
79 | G2U C3G G7C C18G G19A U32C | 0.1
80 | G2U A12U C18G G21U C23G G27U G33A | 0.01
81 | G2U A14U A26U C42U U43C | 0.1
82 | G2U C3A G5C C10U G22C G29A G33C | 0.03
83 | G2U A6U A39C C45A | 0.08
84 | G2U A11G C45G | 0.02
85 | G2U C3A C10U A25G G27U G40U | 0.05
86 | G2U A39G A41G | 0.01
87 | G2U A12G G21C G27A | 0.02
88 | G2U A25C A39C G44C C46G | 0.01
89 | G2U A24C U34G C37A | 0
90 | G2U C3A C42G C46A | 0.05
91 | G2U A24G U38G | 0.03
92 | G2U C3A G19C | 0.2
93 | G2U A14G G29A G35U A39G | 0.13
94 | G2U A14C C15A G29C C37A C42A | 0.05
95 | G2U A25C C46A | 0.07
96 | G2U C3A C42G | 0.03

Row | Variant | self-cleavage
97 | G2U A11U C13A | 0
98 | G2U C3U A6G C10A C42G U43G | 0
99 | G2U A6U U9G G35C | 0.07
100 | G2U A11C A12C C46A | 0.01
101 | G2U A12G G17A C31G C42U | 0.49
102 | G2U C3A C13U G44U C46U | 0.24
103 | G2U A26U C31A | 0.03
104 | G2U C3A C8G G35A C37A | 0.21
105 | G2U A11U G19U U20C G22C A25G C45G | 0.01
106 | G2U A41C C45U | 0.01
107 | G2U A12C G36U C37G | 0
108 | G2U C3A G40U | 0.08
109 | G2U A24C U32A C45U C46U | 0.02
110 | G2U A14U A26G | 0.08
111 | G2U A11U G29U A39C | 0
112 | G2U A11C A24U C31U | 0.03
113 | G2U A14U U38C A39C | 0.01
114 | G2U C3U C8U G21A G27U C42U C46U | 0.07
115 | G2U C3A A4U C13U G19U | 0.37
116 | G2U A16U C37U C42A C45G | 0.07
117 | G2U A11U C18G G21U | 0.03
118 | G2U A25C G30A G44C | 0.02
119 | G2U C3U A11G A24U | 0.03
120 | G2U C3G U9A G22C C31U U32C | 0.04

Row | Variant | self-cleavage
121 | G2U C3G G30U G40A | 0.22
122 | G2U A12G C13A U28A | 0.04
123 | G2U C3A U28C | 0.21
124 | G2U C3A U28A | 0.53
125 | G2U A16U A25G C31A | 0.03
126 | G2U A24C G36A A41C | 0.09
127 | G2U A24U C31U | 0.02
128 | G2U A24U C31A | 0.05
129 | G2U A26U G27U U43G | 0.01
130 | G2U C3U A16G G17U C45U | 0.11
131 | G2U A14G G29U C45A | 0.04
132 | G2U A16G U34G G35C | 0.05
133 | G2U A11U C15U A16U G22U C23G | 0.01
134 | G2U A6U G19A C23A | 0.27
135 | G2U A25G G29A C37U G40A C45U | 0.1
136 | G2U A11C G22U | 0.02
137 | G2U A11G U20A G30A | 0.01
138 | G2U C3A C13A C18G G27C U43G | 0.06
139 | G2U A14U U34G | 0.03
140 | G2U A11U G19U G21A C23G G40U | 0
141 | G2U C3A C46U | 0.07
142 | G2U C3A G21A A26G G44C | 1.17
143 | G2U A14C G21C G22U U28C | 0.03
144 | G2U A11C U38C C42G | 0.01

Row | Variant | self-cleavage
145 | G2U A24U G30C C37U | 0.04
146 | G2U A14C A16G G44A | 0
147 | G2U C3A C15U C23U C31U C45A | 0.03
148 | G2U A11G G21U C31U G36C | 0.01
149 | G2U A6U A11G A26U U38G A39G | 0
150 | G2U A16U A26U G35U | 0
151 | G2U A12C G17U A39G A41U | 0.01
152 | G2U A16G C42A | 0.16
153 | G2U A25C C37G | 0.03
154 | G2U C3G U20G G27U | 0.29
155 | G2U A16C C37G G40C U43A | 0.02
156 | G2U A26C C45G | 0.16
157 | G2U A14U C15G | 0.05
158 | G2U C3A A6G G21A G22A G40A | 0.02
159 | G2U C3A U9A G35C A39U A41G | 0.09
160 | G2U A16U G17U U38A C42A | 0.01
161 | G2U A11U A12C U32G G40A C46U | 0
162 | G2U A12C G19C A41C G44A | 0.01
163 | G2U C3G A14G G33C | 0.02
164 | G2U C3A A6U C8U U20A U28G U34A G36C | 0.05
165 | G2U C3U A6U C8U C46A | 1.65
166 | G2U A12G G35U U43A | 0.04
167 | G2U A14C C18A G21A U32A | 0.01
